The whole screen tested about 48,000 compounds, of which about 120 (0.25%) were called active. The inconclusive results got no clear call from the source; some entries with a clear call stand among them for comparison. The call rests on the fitted dose curve; in most records, active means well fitted activation curve with a large enough effect; inconclusive means small, poorly fitted or top-dose-only effect, or another doubt; inactive means no such curve, though single readings can be large or run the other way. Where the call is inconclusive, the potency comes from a doubtful curve fit.
Test: Primary qHTS for Identification of Small Molecule Activators of Huntingtin-Antisense Promoter Activity; further: nearly all actives have a fitted effect of over 55% in size
Conditions: HEK293 HTT-AS promoter firefly luciferase reporter, 24 h; activity change, positive = activation: at 57.5 µM (top of the series), percent change from vehicle, -100% = no light unless noted
How it was run: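 HEK293 Fluc reporter, 2,500 cells/well, 24 h pre-culture; cpds up to 57.5 uM final, 24 h 37 degrees C; Dual-Glo, 10 min RT; normalized vehicle = 0%, zero RLU = -100%.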
Potency means the concentration at half of the fitted maximal effect; tags describe the fitted curve by direction and shape.

Potency, inconclusive:
CCCCC(=O)Nc1cccc(-c2nc3ccccc3s2)c1 2240 nM [activator, full curve, poor fit], Cc1ccc(CNc2nc3nc(C)c(Cl)c(C)n3n2)cc1 3550 nM [activator, full curve], CSc1nc(C)cc(Nc2cccc(C(=O)O)c2)n1 15800 nM [activator, partial curve, poor fit], O=c1c(O)c(-c2ccc(O)cc2)oc2cc(O)cc(O)c12 43200 nM [activator, partial curve, poor fit], CSc1ccc(/C=C/c2nc3ccccc3n2S(=O)(=O)c2ccc(F)c(C)c2)cc1 251 nM [activator, full curve, poor fit], O=S(=O)(Nc1cccc(-c2ccc(N3CCCCC3)nn2)c1)c1ccc(F)cc1F 3980 nM [activator, single point], CC(=O)NCCNC(=O)c1ccc2c(=O)n(CCc3ccccc3)c(=O)[nH]c2c1 2820 nM [activator, full curve], Fc1ccc(Cc2cn3cc(-c4ccc(F)cc4)nc3s2)cc1 178 nM [activator, full curve, poor fit], COC(=O)c1ccc(CSc2nc3ccncc3n2Cc2ccc(F)cc2)cc1 1780 nM [activator, partial curve, poor fit], COCC(C)Nc1ncnc2c1cnn2-c1cccc(Cl)c1 (configuration not stated) 1580 nM [activator, full curve, poor fit], CCN1CCN(c2ncnc3c2cnn3-c2ccc(F)cc2)CC1 15800 nM [activator, partial curve, poor fit], CCC(=O)N1CCN(c2nc3c(C)cccc3s2)CC1 7940 nM [activator, partial curve], COC(=O)c1c(-c2cccs2)csc1NC(=O)COc1ccccc1 3980 nM [activator, full curve], COc1cccc(OCc2cc(=O)n3cc(C)sc3n2)c1 15800 nM [activator, single point], Cc1ccc(Cn2ccnc2SCC(=O)Nc2ccc3c(c2)OCCO3)cc1 22400 nM [activator, partial curve, poor fit], O=c1cc(-c2ccccc2)oc2ccccc12 10000 nM [activator, partial curve], O=C(CS(=O)(=O)c1nc(-c2ccc(Cl)cc2)cn1-c1ccccc1)Nc1ccc(F)cc1F 3550 nM [activator, partial curve, poor fit], CC(=O)c1ccc(NC(=O)c2nc3ccccc3n(C)c2=O)cc1 1780 nM [activator, full curve, poor fit], COC(=O)c1ccc(Cn2nnc3sc4c(c3c2=O)CCCC4)cc1 2820 nM [activator, full curve], O=C(c1ccccc1)n1nc(-c2ccco2)nc1NCc1ccccc1Cl 3550 nM [activator, full curve, poor fit], CCCNC(=O)Cn1nc(-c2ccc(C)c(C)c2)c2cnc3ccc(F)cc3c21 5010 nM [activator, partial curve, poor fit], Cc1ccc(-c2cn(-c3ccc(Cl)cc3)c(S(=O)(=O)CC(=O)Nc3ccccc3)n2)cc1 1780 nM [activator, full curve, poor fit], COc1ccccc1C(=O)NC1=NC(c2ccc(Br)cc2)CC(=O)N1 (configuration not stated) 1410 nM [activator, partial curve, poor fit], O=c1oc2ccccc2cc1-c1cn2cc(Cc3ccccc3F)sc2n1 282 nM [activator, full curve], COc1ccc(-c2cc(OC(=O)c3cccc(Cl)c3)c3c(C)oc(C)c3c(=O)c2)cc1 11200 nM [activator, partial curve], O=[N+]([O-])c1cc(-c2nc(-c3ccccn3)no2)ccc1NCc1ccccc1 1410 nM [activator, full curve, poor fit], Nc1ccc2nc(-c3ccc(O)cc3)sc2c1 2000 nM [activator, partial curve, poor fit], Cc1ccc2scc(N3CCCCC3)c(=O)c2c1 1000 nM [activator, partial curve, poor fit], CCOc1ccc(Nc2ncnc3c2cnn3-c2ccc(F)cc2)cc1 20000 nM [activator, partial curve, poor fit], Cc1ccc2[nH]c(C(=O)Nc3ccccc3)cc2c1 891 nM [activator, full curve, poor fit], Cc1ccnc(NC(=O)c2c(C)oc3ncn(CC(C)C)c(=O)c23)c1 12600 nM [activator, partial curve], Cc1ccc(C(=O)Nc2ccccc2C(=O)O)cc1S(=O)(=O)N1CCCCCC1 891 nM [activator, partial curve, poor fit], CCc1ccc2oc(-c3cccc(NC(=O)c4cc5ccccc5o4)c3)nc2c1 15800 nM [activator, partial curve, poor fit], COc1cccc(NC(=O)c2sc3nc4n(c(=O)c3c2C)CCC4)c1 4470 nM [activator, partial curve], CC(C)Oc1ccc2c(=O)c(-c3ccccc3)coc2c1 708 nM [activator, full curve, poor fit], Cc1cccc(NC(=O)Nc2ccc(Br)cc2)n1 2240 nM [activator, full curve], CCOc1ccc(NC(=O)N(Cc2c[nH]c3ccccc23)C2CCCCCC2)cc1 2510 nM [activator, full curve], CCOc1ccc(NC(=O)N2CCC(c3ccc(C)cc3)C2)cc1 (configuration not stated) 17800 nM [activator, single point], COc1cc(OC)cc(C(=O)Nc2ccc3c(c2)OCCO3)c1 2240 nM [activator, full curve], Cc1ccc(CNC(=O)c2ccc3c(c2)nc2n3CCCC2)cc1 14100 nM [activator, partial curve], Cc1cccc(CCNC(=O)c2ccc3c(c2)nc2n3CCCCC2)c1 1000 nM [activator, partial curve, poor fit]

Activity change, positive = activation, inactive:
CCc1ccccc1NC(=O)Cn1c(=O)oc2ccccc21 -8.63%, CCCCN(CC)C(=O)C1CCC(CNS(=O)(=O)c2cccc3nsnc23)CC1 (configuration not stated) -8.5% [at 11.5 µM, percent change from vehicle, -100% = no light], CCC(C(=O)NCCc1ccc(SC)cc1)n1nc(C)c2c(C)n(-c3ccc(C)cc3)nc2c1=O (configuration not stated) -26.7%, COCCCNC(=O)c1sc2nc(C)c(C(=O)Nc3ccc(C)cc3C)c(-c3ccc(Br)cc3)c2c1N -17.7%, CCc1ccc(C(=O)CSc2nc(-c3ccccc3)nc3c2CCCC3)cc1 0.13%, CC(=O)Nc1cccc(NC(=O)CSc2nccn2Cc2ccco2)c1 -3.36%, COc1ccc(-n2nnc(-c3nc(-c4ccccc4C)no3)c2N)cc1Cl -9.24%, COc1ccc(NC(=O)C(=O)NCC(c2cccnc2)N2CCc3ccccc3C2)cc1 (configuration not stated) -26.5%, COc1ccc(-c2cc(C(F)(F)F)nc(SCCC(=O)Nc3cccc(O)c3)n2)cc1 -21.4%, Cc1ccc(C)c(Nc2nc3nonc3nc2Nc2cccc(C)c2C)c1 -88.4%, O=c1oc2ccccc2cc1-c1cn2cc(Cc3ccc(Br)cc3)sc2n1 -12.4%, Cc1cccc(C)c1Nc1c(-c2ccc(O)cc2)nc2sccn12 -16.4%, CC(C)OC(=O)c1cc(C(=O)OC(C)C)cc([N+](=O)[O-])c1 -7.21% [at 116 µM, percent change from vehicle, -100% = no light], COc1ccc(NC(=O)CC(C)S(=O)(=O)c2ccc3c(c2)NC(=O)CO3)cc1OC (configuration not stated) -6.84%, CCCN(CCC)CCNC(=O)c1nn(C)c2c1CS(=O)(=O)c1ccccc1-2 9.78%, CCOC(=O)c1noc2ncn(CC(=O)Nc3cccc(Cl)c3)c(=O)c12 -6.75%, Cc1cc(C(C)Nc2ccccc2)c2nc(N3CCOCC3)cc(=O)n2c1 (configuration not stated) -26.6%, CCOC(=O)c1cccc(NC(=O)CSc2nc3cc4ccccc4cc3[nH]2)c1 7.1% [at 11.5 µM, percent change from vehicle, -100% = no light], COC(=O)c1c(SCC(=O)Nc2cccc(Cl)c2C)[nH]c2ccccc2c1=O 10.2%, CC(=O)N1CCN(c2ccc(O)cc2)CC1 -8.97%, CC(=O)[C@]1(O)Cc2c(O)c3c(c(O)c2[C@@H](O[C@H]2C[C@H](N)[C@@H](O)[C@H](C)O2)C1)C(=O)c1ccccc1C3=O -28%

Activity change, positive = activation, inconclusive:
O=C(O)CCSc1nnc(-c2ccc(Cl)cc2Cl)o1 -86.6% [activator], Cc1cccc(NC(=O)C2CCN(S(=O)(=O)c3c(C)noc3/C=C/c3ccco3)CC2)c1C -63.6% [activator], Cc1ccc(/C=C/c2nc3ccccc3n2S(=O)(=O)c2ccc(Br)cc2)cc1 12.3% [activator], Cc1ccc(-n2ncc3c(N4CCCCC4)ncnc32)cc1 -90.2% [activator], Clc1ccc2nsnc2c1NC1=NCCN1 17.6% [activator]
